In doi:10.1101/2025.11.14.688473:
Numbering of substitutions follows the chain as printed. Results are given in words; binding and its absence hold for the method and conditions named. Binding seen in cells or lysates may run through a third protein. Some results given as binding are weak or reduced against the parent protein; the word gives no strength. Sequences can lack the tags named with a protein.

T1: Atg9-PA (S. cerevisiae) (UniProt Q12142)
T1 sequence: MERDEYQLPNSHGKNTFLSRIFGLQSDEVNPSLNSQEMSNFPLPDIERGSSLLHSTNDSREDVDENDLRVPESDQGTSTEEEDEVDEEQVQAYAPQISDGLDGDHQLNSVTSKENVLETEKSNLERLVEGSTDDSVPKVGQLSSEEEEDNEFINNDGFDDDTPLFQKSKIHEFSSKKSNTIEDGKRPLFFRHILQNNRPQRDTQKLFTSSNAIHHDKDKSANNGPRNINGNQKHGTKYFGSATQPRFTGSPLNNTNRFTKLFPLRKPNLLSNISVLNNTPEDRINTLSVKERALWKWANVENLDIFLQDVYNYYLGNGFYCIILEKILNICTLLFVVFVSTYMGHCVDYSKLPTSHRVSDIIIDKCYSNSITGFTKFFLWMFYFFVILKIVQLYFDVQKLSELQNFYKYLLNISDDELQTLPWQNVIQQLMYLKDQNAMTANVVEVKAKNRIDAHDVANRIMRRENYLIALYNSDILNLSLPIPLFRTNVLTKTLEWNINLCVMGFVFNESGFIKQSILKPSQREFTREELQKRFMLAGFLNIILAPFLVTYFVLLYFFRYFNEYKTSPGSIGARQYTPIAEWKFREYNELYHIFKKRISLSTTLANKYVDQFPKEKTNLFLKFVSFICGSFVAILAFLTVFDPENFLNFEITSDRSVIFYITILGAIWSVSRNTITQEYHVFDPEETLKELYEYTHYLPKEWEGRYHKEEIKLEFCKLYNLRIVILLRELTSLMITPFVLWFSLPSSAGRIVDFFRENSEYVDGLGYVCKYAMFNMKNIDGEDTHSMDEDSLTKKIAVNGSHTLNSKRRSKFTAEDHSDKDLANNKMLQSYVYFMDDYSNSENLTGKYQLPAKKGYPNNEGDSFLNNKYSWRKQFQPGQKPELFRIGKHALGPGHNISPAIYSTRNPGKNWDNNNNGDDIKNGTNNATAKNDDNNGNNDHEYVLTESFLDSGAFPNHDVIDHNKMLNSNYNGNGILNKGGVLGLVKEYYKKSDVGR

B1: GFP-Atg11 YDL (protein, UniProt Q12527 1-1178)
chain: MADADEYSTAPTQQEITPLQTTATIINAISGECITTNVDFFVSLDKFKQFIARKWKIPPDQLLILLPYGNKLKPSMFKELLINRSFTLNDFYVYDRRLFSLVSKPTPTNLLTSKDSNPMNSPNSNDLTETLEYLIKNSHISQYQGSDTIMIKPMPSPLEDADVDLSRLNYHSVTSLLTTNLGWLSALEIDVHYFKSLIPDIIAHIKRIFDGLTVCSQYLKLYCFDVESLYNSNVQFLNQLVDNGMTSKWEKCFNDTLSKLTALEGDSLQKFINIESLLENEKSVKILNHSINGKLNKIKREIDENASFRDIITVNIDRLRQMFTPNESKFELEDQMAESFEVLVSEMRTRSRNVLDKEEEEFNSQEFLKSMNVMLEKDKKESVKTLFTISQALYSQIGELIDLKKSLQKHAVAILGNIAFTQMEILGIKRLLLNECNKDLELYKKYEVEFAQVEDLPLIYGLYLIEKARRLSWFQQILSFISNFNQDLELFKQNELRTRNKWVKNFGSIATVFCEAALSSSDFKRLNEYHSHTSPPNEDEEDENENSIANYRQDLVKVSQAIDNYMTQIKETDVSEPIIDLLSKTLFETKRFHIIYSNFKNNNNNSSNGNSISPEGSIALKSDDVVKGYKTRIKKLESLLHEFQYSDIGHWPQGVLNTHLKPFRGSATSINKKKFLGASVLLEPANISEVNIDSVSQANNHQIQELESNVDDLLHQLQLLKEENNRKSMQISEMGKKISDLEVEKTAYRETLTNLNQELARLTNEEQSHRTEIFTLNASFKKQLNDIISQDNEKIEKLTGDYDDVSKSRERLQMDLDESNKKHEQEVNLLKADIERLGKQIVTSEKSYAETNSSSMEKGEKFETIPLAEDPGRENQISAYTQTLQDRIFDIISTNIFILENIGLLLTFDNNNNIQIRRVKGLKKGTAQSNILDESTQMLDAHDNSLIKSPVFQKLKDEYELIKSVANGSEKDTQQSIFLGNITQLYDNKLYEVAVIRRFKDIETLAKKLTKENKIKRTLLERFQREKVTLRNFQIGDLALFLPTRENVNSVGSMSSSTSSLSSSFSSVDLSTPPPLDAMSIQSSPSVIHSNVINQASISGRDKNKLMRPWAAFTAFEESTRYFLKDEKGLTKGKEWFVGRIVTLEHFVADSPSNNPFRLPKGSVWFQVTAVVVSYQGV
B2: GFP-Atg11 DLL (protein, UniProt Q12527 1-1178)
chain: B1 chain with A468Y, L526A
B3: GFP-Atg11 IA3 (protein, UniProt Q12527 1-575; P01094 2-53; Q12527 628-1178)
chain: MADADEYSTAPTQQEITPLQTTATIINAISGECITTNVDFFVSLDKFKQFIARKWKIPPDQLLILLPYGNKLKPSMFKELLINRSFTLNDFYVYDRRLFSLVSKPTPTNLLTSKDSNPMNSPNSNDLTETLEYLIKNSHISQYQGSDTIMIKPMPSPLEDADVDLSRLNYHSVTSLLTTNLGWLSALEIDVHYFKSLIPDIIAHIKRIFDGLTVCSQYLKLYCFDVESLYNSNVQFLNQLVDNGMTSKWEKCFNDTLSKLTALEGDSLQKFINIESLLENEKSVKILNHSINGKLNKIKREIDENASFRDIITVNIDRLRQMFTPNESKFELEDQMAESFEVLVSEMRTRSRNVLDKEEEEFNSQEFLKSMNVMLEKDKKESVKTLFTISQALYSQIGELIDLKKSLQKHAVAILGNIAFTQMEILGIKRLLLNECNKDLELYKKYEVEFAQVEDLPLIYGLYLIEKYRRLSWFQQILSFISNFNQDLELFKQNELRTRNKWVKNFGSIATVFCEDLLSSSDFKRLNEYHSHTSPPNEDEEDENENSIANYRQDLVKVSQAIDNYMTQIKETDVSNTDQQKVSEIFQSSKEKLQGDAKVVSDAFKKMASQDKDGKTTDADESEKHNYGYKTRIKKLESLLHEFQYSDIGHWPQGVLNTHLKPFRGSATSINKKKFLGASVLLEPANISEVNIDSVSQANNHQIQELESNVDDLLHQLQLLKEENNRKSMQISEMGKKISDLEVEKTAYRETLTNLNQELARLTNEEQSHRTEIFTLNASFKKQLNDIISQDNEKIEKLTGDYDDVSKSRERLQMDLDESNKKHEQEVNLLKADIERLGKQIVTSEKSYAETNSSSMEKGEKFETIPLAEDPGRENQISAYTQTLQDRIFDIISTNIFILENIGLLLTFDNNNNIQIRRVKGLKKGTAQSNILDESTQMLDAHDNSLIKSPVFQKLKDEYELIKSVANGSEKDTQQSIFLGNITQLYDNKLYEVAVIRRFKDIETLAKKLTKENKIKRTLLERFQREKVTLRNFQIGDLALFLPTRENVNSVGSMSSSTSSLSSSFSSVDLSTPPPLDAMSIQSSPSVIHSNVINQASISGRDKNKLMRPWAAFTAFEESTRYFLKDEKGLTKGKEWFVGRIVTLEHFVADSPSNNPFRLPKGSVWFQVTAVVVSYQGV
B4: GFP-Atg11ΔCC2 (protein, UniProt Q12527)
chain: MADADEYSTAPTQQEITPLQTTATIINAISGECITTNVDFFVSLDKFKQFIARKWKIPPDQLLILLPYGNKLKPSMFKELLINRSFTLNDFYVYDRRLFSLVSKPTPTNLLTSKDSNPMNSPNSNDLTETLEYLIKNSHISQYQGSDTIMIKPMPSPLEDADVDLSRLNYHSVTSLLTTNLGWLSALEIDVHYFKSLIPDIIAHIKRIFDGLTVCSQYLKLYCFDVESLYNSNVQFLNQLVDNGMTSKWEKCFNDTLSKLTALEGDSLQKFINIESLLENEKSVKILNHSINGKLNKIKREIDENASFRDIITVNIDRLRQMFTPNESKFELEDQMAESFEVLVSEMRTRSRNVLDKEEEEFNSQEFLKSMNVMLEKDKKESVKTLFTISQALYSQIGELIDLKKSLQKHAVAILGNIAFTQMEILGIKRLLLNECNKDLELYKKYEVEFAQVEDLPLIYGLYLIEKYRRLSWFQQILSFISNFNQDLELFKQNELRTRNKWVKNFGSIATVFCEDLLSSSDFKRLNEYHSHTSPPIIDLLSKTLFETKRFHIIYSNFKNNNNNSSNGNSISPEGSIALKSDDVVKGYKTRIKKLESLLHEFQYSDIGHWPQGVLNTHLKPFRGSATSINKKKFLGASVLLEPANISEVNIDSVSQANNHQIQELESNVDDLLHQLQLLKEENNRKSMQISEMGKKISDLEVEKTAYRETLTNLNQELARLTNEEQSHRTEIFTLNASFKKQLNDIISQDNEKIEKLTGDYDDVSKSRERLQMDLDESNKKHEQEVNLLKADIERLGKQIVTSEKSYAETNSSSMEKGEKFETIPLAEDPGRENQISAYTQTLQDRIFDIISTNIFILENIGLLLTFDNNNNIQIRRVKGLKKGTAQSNILDESTQMLDAHDNSLIKSPVFQKLKDEYELIKSVANGSEKDTQQSIFLGNITQLYDNKLYEVAVIRRFKDIETLAKKLTKENKIKRTLLERFQREKVTLRNFQIGDLALFLPTRENVNSVGSMSSSTSSLSSSFSSVDLSTPPPLDAMSIQSSPSVIHSNVINQASISGRDKNKLMRPWAAFTAFEESTRYFLKDEKGLTKGKEWFVGRIVTLEHFVADSPSNNPFRLPKGSVWFQVTAVVVSYQGV

Target: T1, Atg9-PA (S. cerevisiae)
Assay: co-IP; overexpressed GFP-Atg11 or mutants precipitated by overexpressed Protein A-tagged Atg9; blots probed with anti-GFP; washes at 4°C; as in Meyer et al., 2022

Binder | binding
B1 | binds
B2 | binds
B3 | binds
B4 | no binding
